Test results reported in ChEMBL document CHEMBL1157539, “Thousands of chemical starting points for antimalarial lead identification” (Nature, 2010).
The full ranking holds about 13,000 compounds; the median of “IFI” is about 4, and the highest 2% start at about 17. Some of the results follow. Non-standard residues stand in square brackets, D forms with d. Residues, ends and D or L forms follow the SMILES beside them. *: point of attachment. Butanoyl(4-(4-HOPh)) = O=C(CCCc1ccc(O)cc1)*

Assay: GSK_TCMDC: Inhibition Frequency Index (IFI). The number of non-kinase HTS assays where a compound showed > 50 % inhibition, expressed as a percentage of the number of such assays in which the compound was tested (-0 is zero)
Assay type: functional

SMILES	IFI
CC(=NNC(=N)N)C(=O)Nc1ccc(Cl)c(Cl)c1	4.35%
Cc1cc2nc(-c3cc(-c4cccc(NS(C)(=O)=O)c4)cnc3N)[nH]c2cc1C	5.97%
COc1cc2nc(N3CCC(CNC(=O)c4ccc(-c5ccccc5)cc4)CC3)nc(N)c2cc1OC	2.22%
O=C(Nc1cccc([N+](=O)[O-])c1)Nc1ccc(Cl)c(C(F)(F)F)c1	10%
COC(=O)c1c(C#N)c(OC)cc(O)c1CSC[C@@H](CN1CCCCC1)Nc1nc(-c2ccc([N+](=O)[O-])cc2)cs1	4.76%
CC(CCc1ccccc1)NCC(O)c1cccc([N+](=O)[O-])c1 (stereo not drawn)	2.94%
O=C(/C=C/c1ccc(Br)cc1)NCCCCCN1CCC(c2c[nH]c3ccccc23)CC1	5.47%
CC[C@H](C)[C@@H](C(=O)N1CCOCC1)N1CC[C@H](NS(=O)(=O)CC(C)(C)c2ccc(Cl)cc2)C1=O	0.74%
COc1ccc2c(NN=Cc3ccc(N(C)C)cc3)ccnc2c1	5.8%
CC(=O)Nc1nc(C(=O)Nc2ccc(-c3ccc(-c4nc5cc(F)ccc5[nH]4)cc3)cc2)cs1	5.22%
COc1ccc(NC(=O)Nc2cccc(-c3cccc(-c4nc5cccc(C)c5[nH]4)c3)c2)cc1	2.04%
COCCCNC(=O)[C@H]1CNCCN1C(=O)c1ccccc1	0%
CN1CCN(CC(=O)Nc2ccc(-c3csc(-c4nc5ccccc5[nH]4)c3)cc2)CC1	8.04%
CCCCCCCCCN(CCC)C(=O)[C@@H]1OC(C(=O)OC(c2ccccc2)c2ccccc2)=C[C@H](NC(=O)OC(C)(C)C)[C@H]1NC(C)=O	-0%
O=C(NCc1ccc(C(=O)N2CCC(N3CCCCC3)CC2)cc1)c1cc(-c2cccc(C(F)(F)F)c2)ccc1O	0.72%
C#CCCC(=O)Nc1cccc(-c2cccc(-c3nc4cc(C(F)(F)F)ccc4[nH]3)c2)c1	6.19%
CCc1sc(CN(CCCNc2cc(=O)c3ccccc3[nH]2)Cc2sc(CC)c(Br)c2-c2ccsc2)c(-c2ccsc2)c1Br	5.04%
CN1CCCC(COc2cc3c(cc2Br)CCN3C(=O)Nc2ccc(-c3ccncc3)c(Cl)c2)C1 (stereo not drawn)	9.85%
COc1cc(NC(=O)/C=C/c2cccc3ccoc23)ccc1OCCN(C(C)C)C(C)C	2.99%
Nc1ncc(-c2ccc3nccc(-c4ccncc4)c3c2)cc1S(=O)(=O)N1CCCCC1	10.5%
COc1ccc2nc(-c3ccc(C(=O)NCCCN4CCN(c5cc(Cl)ccc5OC)CC4)cc3OC)[nH]c2c1	1.52%
Cn1nccc1C(=O)NCCNCc1ccc(-c2ccc(-c3nc4cc(C(F)(F)F)ccc4[nH]3)cc2)cc1	10.8%

SMILES	IFI
O=C(N[C@@H](Cc1ccccc1)C(=O)NCc1cccc(C(F)(F)F)c1)c1ccc(O)c(-c2ccc(Cl)c(Cl)c2)c1	3.65%
COc1cccc(CCNc2nc(NCc3ccccc3)c3cc(OC)c(OC)cc3n2)c1	5.93%
COC(=O)c1noc(C)c1I	-0%
CC[C@H](C)CNC(=O)c1cncc(-c2ccc(CNCCOc3ccccc3)cc2)c1	3.28%
N#Cc1ccc(N2CCN(Cc3ccc(-c4ccc(-c5nc6cc(C(F)(F)F)ccc6[nH]5)cc4)cc3)CC2)nc1	3.96%
COc1ccc(CNC2CCN(C)CC2)cc1-c1ccc(S(=O)(=O)NCCc2ccccn2)cc1	0%
Cc1cc(=NN=Cc2cccc(F)c2)c2cccc(C)c2[nH]1	0.76%
S=c1nc(-c2ccccc2)n2ccsc2n1	0%
CCOc1cc(C(=O)N[C@@H](Cc2ccccc2)[C@H](O)CNC(C)(C)c2cccc(OC)c2)cc(N2CCCS2(=O)=O)c1	2.11%
CC(C)(C)c1cc([N+](=O)[O-])cc(C(=O)Nc2ccccc2C(F)(F)F)c1O	22.7%
CN(C)C(C)(C)CN(Cc1ccc(-c2ccc(C(F)(F)F)cc2)cc1)C(=O)Cn1c(CCc2cccc(F)c2F)nc(=O)c2ccccc21	8.45%
CC[C@H]1CN(Cc2ccco2)CC[C@H]1CCCc1ccnc2ccc(O)cc12	4.93%
C[C@H](N[C@H]1CCCc2c1[nH]c1ccc(Br)cc21)c1ccccc1	11.4%
O=C(NC1CCN(Cc2ccccc2)C1)c1ccc(Nc2ccc(Br)cc2)nc1 (stereo not drawn)	3.57%
COc1ccc(Cn2c(N3CCN(S(=O)(=O)c4ccc(OC)cc4)CC3)nc3c2c(=O)n(CC2CC2)c(=O)n3CC2CC2)cc1	0.76%
O=[N+]([O-])c1cccc(-c2ccc(C=NNc3cc(N4CCCC4)nc(N4CCCC4)n3)o2)c1	0.75%
CC(C)(C)COc1ccc2c(N)n[nH]c2c1	3.45%
CNC(=O)c1cc(S(=O)(=O)N2CCN(c3ccccn3)CC2)cs1	-0%
Cc1n[nH]c2ccc(-c3ccc4nccc(N5CCC(N)CC5)c4c3)cc12	10.8%
CCc1cccc(NC(=O)/C=C/c2ccc3c(c2)CN(C)CC3)c1	0%
[O-][s+]1c(Cl)c(-c2ccc(Cl)cc2)c2ccc(Cl)cc21 (stereo not drawn)	6.25%
CCc1nc(N)nc(N)c1-c1ccc(F)cc1	2.14%

SMILES	IFI
CCN(CC)C(=S)N/N=C1/C(=O)Nc2c(C)cccc21	4.41%
CCc1ccc(C2=Nn3c(nnc3-c3cccs3)SC2)cc1	5.71%
N#Cc1ccc(N(CCOc2ccc(Cl)cc2)Cc2ccccc2C(F)(F)F)cc1C(F)(F)F	-0%
O=C(Nc1ccc(-c2cccc(-c3nc4cc(C(F)(F)F)ccc4[nH]3)c2)cc1)Nc1ccc(F)c(F)c1F	5.83%
O=C(Nc1cc(Cl)ccc1Cl)N[C@H]1CCN(CCCCCNC(=O)C2CC2c2ccc(Cl)c(Cl)c2)C1 (stereo partly drawn)	10.5%
CC(C)COc1ccc(Cl)cc1Cc1nc(-c2nc3ccc(CN4CCCCC4)cc3[nH]2)co1	18.3%
O=C(Nc1ccc(Cl)c(Cl)c1)Nc1cc(C(F)(F)F)ccc1Cl	5.71%
O=C(N[C@H]1CCN(Cc2ccc(OCCN3CCNCC3)c3ccccc23)C1)c1ccc(Cl)c(Cl)c1	9.68%
O=C1COC2(CN1C1CCN(Cc3ccc(O)cc3Cl)C1)c1ccccc1-c1ccccc12 (stereo not drawn)	8.53%
COC(=O)C(NC(=O)c1ccc(-c2ccc(-c3nc4ccccc4[nH]3)s2)cc1)c1ccc(O)cc1 (stereo not drawn)	10.7%
COc1ccc(CN(C)CCCOc2ccc(NC(=O)C=Cc3ccc(C(C)(C)C)cc3)cc2)cc1OC	9.57%
CC(C)(C)c1ccc(NC(=O)Nc2ccc(Cn3ncc(N4CCCNCC4)c(Cl)c3=O)cc2)cc1	11.8%
Cn1cc(C(=O)Nc2cccc(-c3cccc(-c4nc5cc(F)ccc5[nH]4)c3)c2)n(C)c1=O	3.7%
CN1CCCC(CN2CCN(Cc3cccc(-c4ccc(-c5nc6cc(C(F)(F)F)ccc6[nH]5)cc4)c3)CC2)C1 (stereo not drawn)	12.5%
FC(F)(F)c1ccc(-c2ccc(CNC3CCN(CCN4CCOCC4)CC3)cc2)cc1	6.29%
COc1ccc(CN(C)CCCOc2ccc(NC(=O)c3cccc4c(=O)c5cccc(F)c5[nH]c34)cc2)cc1OC	5.31%
CCC1CN(S(=O)(=O)c2ccc3c(c2)NC(=O)CC(=O)N3)c2cc(Cl)ccc2O1 (stereo not drawn)	1.43%
Cc1cc(N[C@@H](Cc2ccccc2)C(=O)NCCOc2ccccc2)nc(NCCc2ccccn2)n1	4.55%
CCCCNC(=O)c1cc(CNC2CCCCC2)ccc1-c1cccc(CNCc2ccc(-c3ccccc3)cc2)c1	11.5%
CCN(CCO)CCc1cccc(Nc2nccc(-c3c(-c4ccc(NC(=O)N(CC)CC)cc4)nn4ccccc34)n2)c1	-0%
COc1ccc(-c2ccc(NC(=O)c3ccc(C#N)cc3)cc2)cc1CN(C)CCN(C)C	3.96%
COc1nc2c(CCN3CCC(NCc4ccc5c(c4)NCCO5)CC3)c(Cl)cnc2cc1F	9.03%

SMILES	IFI
O=C(NCC(=O)N1CCC[C@H]1C(=O)O)[C@@H](Cc1ccccc1)NC(=O)[C@@H]1CCCN1C(=O)CCCc1ccc(O)cc1 ({Butanoyl(4-(4-HOPh))}-P[dF]GP-OH)	0.75%
CCC(=O)Oc1ccc(NC(=O)c2cccc(OC)c2)cc1	1.42%
Cc1cc(Nc2cccc(C(F)(F)F)c2)nc(NCc2ccccc2)n1	10.2%
COc1ccc(CCN(C)CCOc2ccc(NC(=O)c3cccc4cc5ccccc5nc34)cc2)cc1OC	6.67%
COc1cccc(NC(=O)c2cc([N+](=O)[O-])ccc2NC(=O)CN2CCc3ccccc3C2)c1	3.65%
CCn1cc(C=C2Oc3c(ccc(O)c3CN3CCCCC3)C2=O)c2ccccc21	5.26%
COCCCNC(=O)C1CCN(C(c2ccc(Cl)cc2)c2ccc(Cl)cc2)CC1	2.13%
O=C(NC1CCN(CC2(c3ccccc3F)CCCC2)CC1)c1cc[nH]n1	-0%
O=C(Nc1ccc(-c2cccc(-c3nc4ccccc4[nH]3)c2)cc1)Nc1ccc(F)c(F)c1F	3.96%
O=C(CN1CCC(NCc2cnc(-c3ccc(Cl)cc3)[nH]2)CC1)N1CCc2ccccc21	0.88%
C#CC[C@@H](NC(N)=O)C(=O)O	0%
COc1ccc(COc2c(OC)cc(Cc3cnc(N)nc3N)cc2OC)cc1	0.71%
COc1cc(NC(=O)c2cccs2)c(OC)cc1NC(=O)Nc1cccc(Cl)c1	9.68%
Cc1[nH]cc(Br)c(=O)c1-c1ccc(Oc2ccc(OC(F)(F)F)cc2)cc1	4.5%
O=C(Nc1ccccc1)N(Cc1ccc(-c2cccc(CNCc3ccc4c(c3)OCO4)c2)cc1)C1CCN(Cc2ccccc2)CC1	7.25%
CCN(CC)/C(=N/C(=N)NCc1ccc(Cl)cc1Cl)NCCCCCCN/C(=N\C(=N)NCc1ccc(Cl)cc1Cl)N(CC)CC	14.6%
O=[N+]([O-])c1ccccc1C=NN=c1cc[nH]c2ccccc12	1.48%
CC1(C)NC(N)=NC(=N)N1OCCCc1cc(Cl)c(Cl)cc1Cl	7.09%
Clc1ccc2c(NCCNc3ccnc4cc(Cl)ccc34)ccnc2c1	0.74%
Oc1ccc2ccccc2c1CNCCC1CCCCC1	2.96%
O=C(NCC1CCCCC1)c1cc(=O)c2ccccc2o1	0%
O=C(Nc1ccc(Cl)cc1)c1cc(Cl)ccc1NC(=O)C1CCc2ccccc2O1 (stereo not drawn)	-0%
